Structures are written as SMILES. Screen size: about 110,000 compounds; about 230 (0.21%) showed an effect of 50% or more. The list shows a part of the results. Where a SMILES comes first, the peptide text is derived from it.
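Note: 30 min substrate incubation versus DMSO and 10 µM JCP410 controls.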

In this experiment the target is DPAP1 (Plasmodium falciparum, UniProt Q8IIJ9). In words: primary screen, percent inhibition; read by cleavage of a fluorogenic dipeptide substrate; higher = more effect of the substance. Details: species or system P. falciparum D10 trophozoite lysates; single well.
DPAP1, sequence (Q8IIJ9 whole entry, looked up): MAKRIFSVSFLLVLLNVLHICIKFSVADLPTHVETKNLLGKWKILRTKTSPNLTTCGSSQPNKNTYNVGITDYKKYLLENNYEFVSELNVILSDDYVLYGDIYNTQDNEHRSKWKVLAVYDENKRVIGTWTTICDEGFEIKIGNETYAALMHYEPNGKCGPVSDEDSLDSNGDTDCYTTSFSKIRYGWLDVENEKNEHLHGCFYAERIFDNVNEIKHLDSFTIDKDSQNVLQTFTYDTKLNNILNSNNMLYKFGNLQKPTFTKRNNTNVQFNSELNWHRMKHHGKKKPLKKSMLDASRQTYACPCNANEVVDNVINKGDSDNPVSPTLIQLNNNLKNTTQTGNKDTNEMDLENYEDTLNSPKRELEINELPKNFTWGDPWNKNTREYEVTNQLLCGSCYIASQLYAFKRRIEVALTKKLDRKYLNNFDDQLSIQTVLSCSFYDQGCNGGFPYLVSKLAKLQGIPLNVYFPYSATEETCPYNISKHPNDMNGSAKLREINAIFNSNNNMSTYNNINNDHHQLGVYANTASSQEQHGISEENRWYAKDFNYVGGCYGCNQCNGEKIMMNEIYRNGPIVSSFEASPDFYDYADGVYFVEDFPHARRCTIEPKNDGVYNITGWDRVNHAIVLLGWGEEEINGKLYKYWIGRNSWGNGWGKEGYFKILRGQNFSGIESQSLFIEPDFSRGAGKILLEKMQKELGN
On to `Cc1cc(Cl)ccc1OCC(=O)NCCOc1nc(N(C)C)nc(N2CCCCC2)n1`, for which the “% Inhibition @ 10 uM” value was 0.401%. In the case of `Cc1ccc(C2SCC(=O)Nc3c2c(C)nn3C2CCOC(C)(C)C2)cc1` (centres unmarked), the “% Inhibition @ 10 uM” value was -7.86%. Regarding `CC(Nc1c([N+](=O)[O-])cc([N+](=O)[O-])c2ccccc12)c1ccccc1` (centres unmarked), the “% Inhibition @ 10 uM” value is listed as -6.22%.

As to `CCN1C(=O)C(CC(=O)Nc2cccc(C(F)(F)F)c2)S/C1=N\c1cccc(OC)c1` (centres unmarked), the “% Inhibition @ 10 uM” value is listed as 4.56%. In the case of `CCOC(=O)C1CCN(S(=O)(=O)c2cc(Cl)ccc2Cl)CC1`, the “% Inhibition @ 10 uM” value is reported as -0.292%.

For the molecule `O=C(NC1CCCCCCC1)c1cnc2ccc(S(=O)(=O)N3CCOCC3)cc2c1O`, the “% Inhibition @ 10 uM” value is on record as -2.26%. Consider `Cc1c(C(=O)N2CCC(Cc3ccccc3)CC2)oc2ccc(S(=O)(=O)N3CCOCC3)cc12`, for which the “% Inhibition @ 10 uM” value was -4.06%.

For the molecule `O=C(NC1CCS(=O)(=O)C1)/C(=C\c1cccc(Oc2ccccc2)c1)NC(=O)c1ccccc1` (centres unmarked), the “% Inhibition @ 10 uM” value is listed as -5.28%. The value for `COc1[nH]c2ccccc2c1C=C(C#N)C#N` was 0.27%; that for `CSc1ccccc1N1CCN(C(=O)N[C@@H](CC(C)C)C(=O)NCC#N)CC1` was -5.2%. The value for `COc1cc(/C=C2/C(=O)/C(=C/c3cc(OC)c(OC)c(OC)c3)C3CCC2N3C)cc(OC)c1OC` was -2.12%; that for `CCOC(=O)N1CCN(C(=O)C2CCN(c3nc4ccc(OC)cc4s3)CC2)CC1` was -5.51%. `Cc1nc(N2C(=O)c3oc4ccccc4c(=O)c3C2c2ccc(C(C)(C)C)cc2)sc1C` (centres unmarked): the “% Inhibition @ 10 uM” value came out at 2.16%.

On to `CC1CCCCC1/N=c1/c(-c2ccccc2)c(O)c1=O` (centres unmarked), for which the “% Inhibition @ 10 uM” value is -4.37%. With `CN(C)c1ccc(/C=C/CN2CCN(C/C=C/c3ccccc3)CC2)cc1`, the “% Inhibition @ 10 uM” value is -0.292%. Next, `Nc1nonc1C(=O)NCCNC(=O)c1cccc(Br)c1`: 1.25%; `CCCNC(=O)C1CCCN(c2nn3cc(-c4ccc(F)cc4)nc3s2)C1` (centres unmarked): 3.95%. Next, `Cc1nn(C(=O)CCCC(=O)NCCCN2CCOCC2)c2ccccc12`: -1.11%; `C/C=C/C[C@H](NC(=O)c1ccccc1)C(=O)NCC#N`: -1.83%. Next, `COCCOC(=O)C1=C(C)N=C2SCCC(=O)N2C1/C=C/c1ccccc1OC` (centres unmarked): -6.78%; `Cc1cccnc1NC(=O)C1CCCN(c2ncnc3onc(C)c23)C1` (centres unmarked): -3%; `COc1ccccc1C(NC(=O)C(C)C)c1ccc2cccnc2c1O` (centres unmarked): -1.48%. Turning to `C=CCNC(=O)c1cc2c(=O)n3cccc(C)c3nc2n(CCOCCO)c1=N`, the “% Inhibition @ 10 uM” value is 1.97%.

`CCC1CCCCN1C(=O)c1cc(-c2ccc(C)cc2)on1` (centres unmarked): the “% Inhibition @ 10 uM” value is -5.2%.

For `NS(=O)(=O)c1ccc(CNC(=O)C2CCCCC2)cc1`, the “% Inhibition @ 10 uM” value stood at 3.72%. For the molecule `O=c1c(Oc2ccccc2Cl)c(C(F)(F)F)oc2cc(O)ccc12`, the “% Inhibition @ 10 uM” value is -0.0735%. Next, `C=CCN(c1nccs1)S(=O)(=O)c1ccc(C)cc1`: 0.558%; `COc1ccc(OCC(=O)Nc2c(C(=O)N3CCN(C)CC3)oc3ccccc23)cc1`: -4.22%; `CC1=C(C#N)C(c2cccnc2)C2=C(O)CC(C)(C)CC2=N1` (centres unmarked): -4.03%. Next, `CCCN(Cc1cccs1)C(=O)Nc1sc2c(c1C(=O)OCC)CCCC2`: 0.623%; `CC(C)OCCCn1c(=O)c2ccccc2n2c(-c3cccc(F)c3)nnc12`: 1.68%; `CCCN(Cc1ccncc1)CC1CC1`: -2.95%.

As for `COc1ccccc1N1CCN(C(=O)CN(c2ccccc2Br)S(C)(=O)=O)CC1`, the “% Inhibition @ 10 uM” value is listed as -2.6%.

Take `O=C(CCCc1ccccc1)Nc1ccc(Cl)cc1`: the “% Inhibition @ 10 uM” value is on record as -0.712%. Next, `COC(=O)NC(=O)/C=C/c1ccccc1`: -0.636%; `COc1ccc(/C=c2/sc3nc(=O)c(Cc4ccccc4)nn3c2=O)cc1OC`: 10.8%; `CCCC(=O)NCn1nnc(-c2ccncc2)n1`: 4.19%. Regarding `COc1ccccc1NC(=O)[C@@H]1C2C=CC(C2)[C@@H]1C(=O)O` (some centres unmarked), the “% Inhibition @ 10 uM” value is 0.774%.

For the molecule `CCC(CC)=C(C#N)C(=O)Nc1ccc(Cl)cc1`, the “% Inhibition @ 10 uM” value is -0.883%. Next, `CCOc1c(Cl)cc(C(=O)Nc2cccc(C(C)=O)c2)cc1Cl`: 14.1%; `CCOc1ccccc1N1CCN(S(C)(=O)=O)CC1`: -0.95%; `Cc1[nH]c2c(C)ccc(F)c2c1CCNC(=O)COc1ccc(F)cc1F`: -0.891%. Next, `O=C(C1Sc2nnc(-c3ccccc3)n2NC1c1ccc(Cl)cc1)N1CCOCC1` (centres unmarked): 1.72%; `CCO/C(O)=C1\C(C)=Nc2nnnn2C1c1ccc(OC)c(OC)c1` (centres unmarked): 1.39%. The value for `CCc1nn2c(=O)cc(COc3ccc(/C=C(\C#N)c4nc5ccccc5[nH]4)cc3)nc2s1` was -0.495%; that for `Cc1ccc(Cn2c3ccccc3n3cc(C)nc23)cc1` was 3.04%; that for `Cn1c(=O)c2ccccc2n2c(CCC(=O)NC3CCN(Cc4ccccc4)CC3)nnc12` was 5.68%. As for `CSc1ccc(/C=C2\CN(C)CC3=C2OC(N)=C(C#N)C3c2ccc(SC)cc2)cc1` (centres unmarked), the “% Inhibition @ 10 uM” value came to 2.38%.

On to `CCc1ccc(CN2CCN(C(=O)c3cccc(OC)c3)CC2)cc1`, for which the “% Inhibition @ 10 uM” value is listed as -1.98%. Next, `C=Cc1ccc(Cn2c(C(=O)O)c(CNCc3cccc(Cl)c3)c3ccccc32)cc1`: 6.59%; `CCc1nnc(NC(=O)CSc2nc(C(F)(F)F)cc(C)c2C#N)s1`: 59.2%; `CCN1CCC(N2CCC(C)CC2)CC1`: 1.57%. The value for `CCCN1CCCC(C(N)=O)C1` (centres unmarked) was -0.222%; that for `Cc1ccc(C(=O)CCC(=O)NC(Cc2ccccc2)c2ccccc2)cc1` (centres unmarked) was 3.47%; that for `COc1ccccc1OCC(O)CN1CCC(C)CC1` (centres unmarked) was -1.47%. As to `Cc1cccc(OCC(=O)N(Cc2ccco2)Cc2ccco2)c1C`, the “% Inhibition @ 10 uM” value was 5.43%. The value for `COc1cc(C(=O)N2CCN(c3ccc(C)c(C)c3)CC2)cc(OC)c1OC` was -1.02%. Take `COc1ccc(-c2cc(C(F)(F)F)nc(SCC(=O)N3CCCCC3C)n2)cc1` (centres unmarked): the “% Inhibition @ 10 uM” value worked out at 0.778%. For the molecule `Cc1ccc2c(c1)cc1c(=O)n(CC(=O)N3CCC(Cc4ccccc4)CC3)nc(C)n12`, the “% Inhibition @ 10 uM” value is reported as 3.29%.

Regarding `CSC1=C(C#N)C2(CCCC2)C(C#N)C(=O)N1` (centres unmarked), the “% Inhibition @ 10 uM” value was -0.239%.

Consider `O=C(Cn1c2c(c(-c3ccccc3Cl)cc1=O)CCC2)NCc1cccs1`, for which the “% Inhibition @ 10 uM” value was -1.46%. Regarding `Cc1ccc(C)c(NC(=O)c2ccc(N3C(=O)C4C5C=CC(C5)C4C3=O)cc2)c1` (centres unmarked), the “% Inhibition @ 10 uM” value is recorded as -5.14%. As for `CC(C)SC1=NN2CCCC(=O)N=C2S1`, the “% Inhibition @ 10 uM” value is on record as 4.49%. Next, `CC(C)(C)CC(=O)Nc1ccc(S(=O)(=O)N2CCCC2)cc1`: -1.04%; `COc1ccc(S(=O)(=O)NC(C)c2ccccc2)cc1-c1nnc2c3ccccc3c(C)nn12` (centres unmarked): 0.628%; `Cc1onc(-c2c(Cl)cccc2Cl)c1C(=O)NCc1ccc2c(c1)OCO2`: -5.28%. Next, `COc1ccccc1CN1CCN(Cc2ccc(Br)cc2)CC1`: 11.5%; `Cc1ccc(CN2CCCN(Cc3c(F)cccc3Cl)S2(=O)=O)cc1`: -1.59%. The value for `Cc1c(NC(=O)c2cccs2)c(=O)n(-c2ccccc2)n1C` was 2.22%. `COc1ccc(C(=O)c2nccc3ccccc23)cc1`: the “% Inhibition @ 10 uM” value is 3.59%. The value for `CC1C=CCC2C(=O)N(c3cccc(C(=O)Nc4ccccc4)c3)C(=O)C12` (centres unmarked) was -2.8%; that for `Oc1ccccc1C1OCC2(CO1)COC(c1ccccc1O)OC2` (centres unmarked) was 3.6%; that for `Cc1ccc(C)c(NC(=O)C2CC=CCC2C(=O)O)c1` (centres unmarked) was -3.37%.

Consider `CC1=C(C(=O)OCC2CCCO2)C(c2ccc(Br)cc2)NC(=O)N1` (centres unmarked), for which the “% Inhibition @ 10 uM” value came out at 1.13%.

Consider `Cc1ccc2cc3cc(C(=O)NC(C)C)oc3nc2c1`, for which the “% Inhibition @ 10 uM” value came to 0.208%. As to `Cc1ccc(CN(C(=O)NC23CC4CC(CC(C4)C2)C3)C2CCN(Cc3ccccc3)CC2)o1`, the “% Inhibition @ 10 uM” value is listed as -5.3%. With `Cn1c(=O)c(S(=O)C2CCCCC2)c(O)c2ccccc21` (centres unmarked), the “% Inhibition @ 10 uM” value is given as -0.413%. Turning to `CCCCN(CC)CCCNC(=O)C1CCN(S(=O)(=O)CC)CC1`, the “% Inhibition @ 10 uM” value turned out to be 2.18%. Next, `Cc1ccc(-c2csc(/C(C#N)=C/c3cccc4ccccc34)n2)c(C)c1`: -0.546%; `OCCN(CCO)CCc1ccccc1`: 1.9%; `COc1ccc(/C=C2/Sc3ccccc3C2=O)c(OC)c1`: -5.9%. The value for `c1ccc2c(c1)nc(NCc1ccncc1)n2CCN1CCCCC1` was 0.032%. Next, `COc1cccc(/C=C2/CCCC3=C2OC(N)=C(C#N)C3c2cccc(OC)c2OC)c1OC` (centres unmarked): 3.94%. On to `N#CC1=C(N)Oc2cc(N)ccc2C1c1ccsc1` (centres unmarked), for which the “% Inhibition @ 10 uM” value is reported as -4.11%. The value for `CCN1C(=O)C2(C(C#N)=C(N)Oc3[nH]nc(-c4ccc(C)cc4)c32)c2ccccc21` (centres unmarked) was 0.658%.

For `CCOC(=O)c1nc2ncc([N+](=O)[O-])cn2n1`, the “% Inhibition @ 10 uM” value is on record as 2.65%. The value for `Cc1ccsc1C1CC(=O)NC(SCc2ccccc2)=C1C#N` (centres unmarked) was -2.89%; that for `O=C(Cc1ccc(Cl)cc1)Nc1ccc(S(=O)(=O)Nc2cnc3ccccc3n2)cc1` was -5.06%; that for `O=S(=O)(c1c[nH]cn1)N1CCN(Cc2ccccc2)CC1` was -0.499%.

For the molecule `CCc1nc2ccccc2n1CC(O)COc1ccc(Cl)cc1` (centres unmarked), the “% Inhibition @ 10 uM” value is -2.74%. Next, `O=C(NCCO)C1CC(=O)N(c2ccccc2)C1` (centres unmarked): -0.996%; `Oc1c(/C=N/CCCn2ccnc2)c(-c2ccccc2)nn1-c1nc2ccccc2s1`: 3.65%; `Cn1cc(Br)c(C(=O)Nc2sc3c(c2C(N)=O)CCCCC3)n1`: 51.9%. Next, `O=C(O)CNC(=O)C1CCCN1C(=O)CNC(=O)OCc1ccccc1` (centres unmarked) (HELM PEPTIDE1{[O=C(OCc1ccccc1)[*:2]].G.[O=C(C1CCCN1[*:1])[*:2]].G}$$$$V2.0): -5.51%; `c1cnc2c(SCC3CCOCO3)cccc2c1` (centres unmarked): 2.68%. Turning to `O=C1NC(=O)/C(=C\c2ccc3c(c2)OCO3)S1`, the “% Inhibition @ 10 uM” value worked out at 3.66%. In the case of `CCOC(=O)N1CCC(Nc2nn3nnnc3c3ccccc23)CC1`, the “% Inhibition @ 10 uM” value worked out at 0.802%. Regarding `O=C1NC2(CCCC2)C(=O)N1CCS(=O)(=O)Oc1ccccc1`, the “% Inhibition @ 10 uM” value is recorded as -5.28%.

The values are drawn from paper PMC6919601, “Identification of Plasmodium dipeptidyl aminopeptidase allosteric inhibitors by high throughput screening” (PLoS ONE, 2019).
